Experimental data reported in PMC4336329 (PLoS ONE, 2015).
Hit rate of the full screen: of about 310,000 compounds, about 2,200 (0.71%) showed an effect of 50% or more. Effects have a minus sign here. The list shows a part of the results.

These compounds were tested against human ether-à-go-go-related gene (hERG) potassium channel (human, UniProt Q12809) (assay: primary screen, population patch clamp on CHO cells stably expressing hERG).
Chain of human ether-à-go-go-related gene (hERG) potassium channel (Q12809 whole entry, looked up): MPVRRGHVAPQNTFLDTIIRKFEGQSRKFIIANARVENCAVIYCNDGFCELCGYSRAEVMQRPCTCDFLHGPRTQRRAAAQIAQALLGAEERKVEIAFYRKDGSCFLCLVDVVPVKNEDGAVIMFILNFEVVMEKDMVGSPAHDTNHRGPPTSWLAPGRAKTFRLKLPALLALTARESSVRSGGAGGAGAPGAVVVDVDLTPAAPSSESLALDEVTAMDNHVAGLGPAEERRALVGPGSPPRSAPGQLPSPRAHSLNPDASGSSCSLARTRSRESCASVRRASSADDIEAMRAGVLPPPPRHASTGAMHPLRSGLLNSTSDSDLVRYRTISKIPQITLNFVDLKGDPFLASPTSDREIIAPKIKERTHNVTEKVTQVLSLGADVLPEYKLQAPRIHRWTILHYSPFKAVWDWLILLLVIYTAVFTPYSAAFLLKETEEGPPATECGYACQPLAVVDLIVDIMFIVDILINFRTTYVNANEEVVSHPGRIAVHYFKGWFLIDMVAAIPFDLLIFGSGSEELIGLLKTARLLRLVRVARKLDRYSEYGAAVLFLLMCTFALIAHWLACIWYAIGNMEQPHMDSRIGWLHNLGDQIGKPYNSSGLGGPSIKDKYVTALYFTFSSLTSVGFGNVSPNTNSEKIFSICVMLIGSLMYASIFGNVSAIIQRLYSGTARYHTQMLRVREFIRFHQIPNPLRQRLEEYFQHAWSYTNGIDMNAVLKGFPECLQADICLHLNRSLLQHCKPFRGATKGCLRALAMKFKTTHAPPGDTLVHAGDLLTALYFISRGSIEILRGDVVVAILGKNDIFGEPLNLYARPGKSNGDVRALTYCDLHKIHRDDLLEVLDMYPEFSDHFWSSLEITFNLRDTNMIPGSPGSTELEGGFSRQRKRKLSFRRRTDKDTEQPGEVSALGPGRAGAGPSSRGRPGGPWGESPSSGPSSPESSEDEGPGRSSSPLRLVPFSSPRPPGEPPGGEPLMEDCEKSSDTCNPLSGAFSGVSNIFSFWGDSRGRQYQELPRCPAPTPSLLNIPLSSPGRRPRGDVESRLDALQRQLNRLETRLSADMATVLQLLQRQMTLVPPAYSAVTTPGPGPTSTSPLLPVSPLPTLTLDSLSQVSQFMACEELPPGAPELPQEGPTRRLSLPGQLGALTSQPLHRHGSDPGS

In order of rising “hERG current change (%, negative = inhibition) at 1uM” value:
1. Cc1sc(NC(=O)CSc2nnc(CCNC(=O)c3cccs3)n2C)nc1-c1ccccc1  -27.7%
2. CCOC(=O)Cc1csc(NC(=O)c2cccs2)n1  -2.98%
3. CCOC(=O)c1c(C)[nH]c(C)c1C(=O)CSc1nnnn1-c1ccccc1  -1.78%
4. Cc1ccc(Cl)cc1NC(=O)CC(O)(C(F)(F)F)C(F)(F)F  -1.37%
5. CC(OC(=O)c1ccc(Cl)c(S(=O)(=O)N2CCc3ccccc32)c1)C(=O)Nc1ncc(Cl)cc1Cl (stereo not drawn)  -0.55%
6. CCc1ccccc1N/N=C(/C)c1c(O)cc(C)oc1=O  1.44%
7. COc1cccc(CC(=O)Nc2nc(-c3cccnc3)cs2)c1  2.65%
8. Cc1ccc2cccc(NC(=S)NC(=O)c3c(Br)cnn3C)c2n1  3.43%
9. CN(CCc1ccccn1)C(=O)CCC1CCCN(C(=O)CCOc2ccccc2)C1 (stereo not drawn)  3.56%
10. CCn1cc(C(=O)NCCCN(CC(C)C)CC(C)C)c(=O)c2cc(S(=O)(=O)N3CCOCC3)ccc21  3.6%
11. CC(C)(C)NC(=O)NC(=O)CN1CCC(Cc2ccccc2)CC1  3.83%
12. Cc1nc(N2CCOCC2)c2c(C)c(C(=O)Nc3ccccc3C(F)(F)F)sc2n1  4.86%
13. COc1ccc2ccccc2c1-c1sc(Nc2ccccc2)n[n+]1-c1ccc(F)cc1.[Cl-]  4.91%
14. CCNC(=O)NC1(C(=O)Nc2ccc3c(c2)OCCO3)CCCCC1  4.95%
15. CCCNC(=O)Cn1nc([N+](=O)[O-])c([N+](=O)[O-])c1C  5.58%
16. O=C(c1ccc(N2CC3CC(C2)c2cccc(=O)n2C3)c([N+](=O)[O-])c1)N1CCCC1 (stereo not drawn)  5.65%
17. COCCN1C(=O)N(C)[C@@H](c2ccccc2)C(C(C)=O)=C1C  6.21%
18. O=c1[nH]c2ccc(NC(=S)Nc3ccccc3Cl)cc2[nH]1  6.47%
19. COC(=O)c1c(C(=O)OC)c(-c2ccc(F)cc2)n2c1CS(=O)(=O)C2  6.83%
20. COc1ccc(S(N)(=O)=O)cc1C(=O)N(C)CC(=O)Nc1ccc(N2CCOCC2)cc1  7.76%
21. CCN(CC)c1ccc(NC(=S)NC(=O)C2CCC2)cc1  8.39%
22. CCCn1c(SC(C(=O)Nc2cc(C)ccc2OC)c2ccccc2)nc2ccccc2c1=O (stereo not drawn)  8.42%
23. COc1ccc(CCNc2cc(N3CCN(C(=O)c4ccc(C)cc4)CC3)ccc2[N+](=O)[O-])cc1OC  8.69%
24. COc1ccc(NC(=O)COC(=O)/C=C/c2ccccc2[N+](=O)[O-])cc1OC  8.9%
25. CCC(=O)Nc1c(C(=O)Nc2cccc(OC)c2)oc2ccccc12  10.1%
26. S=C(NC12CC3CC(CC(C3)C1)C2)N1CCOCC1  10.4%
27. Cc1ccc(SCc2ccc(C(=O)Nc3cccnc3)cc2)cc1  10.5%
28. Cc1c(/C=N/NC(=O)CNc2ccccc2)c2ccccn2c1C(=O)c1ccc(Cl)cc1  10.7%
29. COc1ccc(S(=O)(=O)N2CCCC(C(=O)NCCN3CCOCC3)C2)cc1C (stereo not drawn)  11.5%
30. CC1(C)Cc2c(sc3ncn4nc(-c5ccco5)nc4c23)CO1  12.1%
31. O=C(NCCCN1CCOCC1)c1ccc(/C=C2\Oc3ccccc3N(Cc3ccccc3F)C2=O)cc1  12.5%
32. O=C(CCNC(=O)C1CCN(S(=O)(=O)c2ccc(F)cc2)CC1)Nc1nccs1  12.7%
33. COc1cc(/C=C/c2noc(-c3ccccc3O)n2)cc(OC)c1OC  13.2%
34. CCOc1ccc(NC(=O)CCC(=O)NNC(=O)Nc2cccc(Cl)c2)cc1  13.6%
35. CCOC(=O)Cn1nc(C)cc1NC(=O)c1cc(OC)c(OC)c(OC)c1  14.1%
36. CCCCNC(=O)CCCCn1c(=S)[nH]c2c([nH]c3ccc(OC)cc32)c1=O  14.4%
37. N/C(=N/OS(=O)(=O)c1ccc([N+](=O)[O-])cc1)c1ccncc1  14.6%
38. Cc1ccc(S(=O)(=O)NC(C(=O)N2CCOCCOCCOCCOCC2)C(C)C)cc1 (stereo not drawn)  15%
39. Cl.NC(=O)C1CCN(Cc2nnnn2Cc2ccco2)CC1  15.4%
40. COc1ccccc1-n1c(SCC(=O)O)nc2c(sc(=S)n2-c2ccccc2C)c1=O  15.7%
41. COc1ccc(C(=O)Nc2ccc3c(c2)nc(CCNC(C)=O)n3C)cc1  20%
42. Cc1c(CC(=O)NC(C)C)c(=O)oc2cc3c(cc12)CCC(C)(C)O3  22.4%
